The other results are listed elsewhere or left out. Sequences were assembled here from the parent chain. Inactive controls read about 0.05.
B1: TEV protease; numbered along this chain (parent)
chain: MGESLFKGPRDYNPISSSICHLTNESDGHTTSLYGIGFGPFIITNKHLFRRNNGTLVVQSLHGVFKVKDTTTLQQHLVDGRDMIIIRMPKDFPPFPQKLKFREPQREERICLVTTNFQTKSMSSMVSDTSCTFPSGDGIFWKHWIQTKDGQCGSPLVSTRDGFIVGIHSASNFTNTNNYFTSVPKNFMELLTNQEAQQWVSGWRLNADSVLWGGHKVFMVKPEEPFQPVKEATQL

Variants of: B1
Experiment: raw area under fraction-flipped curve 0-4 h after induction (AUC4h, not background-subtracted), DNA-recorder readout of cleavage of the substrate (dimensionless); higher = more cleavage of the substrate by the protease variant
Conditions: temperature: 34 °C; time window: 0-4 h after rhamnose induction
Experimental: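 In vivo DNA recorder in E. coli TOP10(DE3) ΔrhaA at 34 °C. Each TEVp single-site mutant (parent TEVp 0) is paired with a single-site variant of the 7-mer TEVs (canonical ENLYFQ|S). The substrate sits between flexible linkers in a Bxb1-sfGFP-TEVs-SsrA fusion, so cleavage stabilises Bxb1 and speeds flipping of a recombination array, read by NGS. The value is the raw area under the fraction-flipped curve over 0-4 h after rhamnose induction (AUC4h), with ≥20 reads per time point. It is not background-subtracted; inactive controls average about 0.047.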
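Also: Bxb1 expression induced with 0.2% (w/v) L-rhamnose at OD600 near 0.5, cultures sampled hourly, flipped fraction per protease–substrate barcode pair counted by paired-end Illumina sequencing.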

Row | Variant | area with substrate ENLAFQS | area with substrate ENLCFQS | area with substrate ENLDFQS | area with substrate ENLEFQS | area with substrate ENLFFQS | area with substrate ENLHFQS | area with substrate ENLIFQS | area with substrate ENLKFQS | area with substrate ENLMFQS | area with substrate ENLVFQS | area with substrate ENLGFQS | area with substrate ENLPFQS | area with substrate ENLRFQS | area with substrate ENLSFQS | area with substrate ENLTFQS | area with substrate ENLLFQS | area with substrate ENLNFQS | area with substrate ENLQFQS | area with substrate ENLWFQS
1 | T176W | 0.0526 | 0.0648 | 0.072 | 0.0522 | 0.0562 | 0.0552 | 0.076 | 0.0523 | 0.0538 | 0.06 | – | – | – | – | – | – | – | – | –
2 | S201I | 0.0684 | 0.0727 | 0.0681 | 0.057 | – | 0.0736 | 0.0658 | 0.0931 | 0.0574 | 0.0943 | 0.067 | 0.0831 | 0.0698 | 0.0635 | 0.0691 | – | – | – | –
3 | S201L | 0.0656 | 0.045 | 0.0684 | 0.0631 | 0.071 | 0.0938 | 0.0699 | 0.0783 | – | 0.0428 | – | 0.0633 | 0.0644 | 0.0566 | – | – | – | – | –
4 | I164P | 0.0656 | 0.0586 | 0.0523 | 0.0641 | 0.0537 | 0.0592 | 0.0714 | 0.0633 | – | 0.0438 | – | 0.052 | 0.0582 | 0.048 | – | 0.0474 | 0.0343 | 0.0475 | 0.0605
5 | I164W | 0.0324 | 0.0487 | – | 0.058 | 0.0488 | 0.0741 | 0.0594 | 0.0678 | – | – | – | 0.0541 | – | – | – | – | 0.061 | – | 0.0685
6 | G202L | 0.0569 | – | – | – | 0.0479 | – | – | 0.0602 | 0.0708 | – | 0.0578 | – | – | 0.0565 | – | – | – | – | 0.0607
7 | L211V | 0.0652 | – | 0.0732 | 0.0443 | – | – | 0.0915 | 0.07 | – | – | – | – | 0.0577 | – | – | 0.0762 | – | 0.0669 | 0.0846
8 | L190W | 0.0648 | 0.0575 | – | 0.0783 | 0.0778 | 0.079 | 0.0828 | 0.0688 | 0.0653 | – | – | 0.0585 | 0.0607 | 0.0488 | – | – | 0.0647 | 0.0362 | –
9 | N193I | 0.09 | 0.0487 | – | – | – | 0.077 | – | – | – | 0.0829 | – | 0.0598 | 0.0578 | 0.057 | – | 0.0708 | – | 0.0806 | –
10 | R204W | 0.0642 | 0.0658 | 0.0658 | 0.128 | 0.0909 | 0.071 | 0.114 | 0.0774 | – | 0.087 | 0.0668 | 0.0809 | 0.0727 | 0.0492 | – | 0.0808 | 0.0725 | 0.0736 | 0.0814
11 | R204Q | 0.0705 | 0.0778 | 0.0611 | 0.0855 | 0.0964 | 0.0826 | 0.0878 | 0.103 | 0.102 | 0.0916 | – | – | 0.0818 | 0.0492 | – | – | 0.0699 | 0.0566 | –
12 | W212F | 0.06 | – | 0.0537 | – | 0.0934 | 0.0692 | 0.0694 | 0.0754 | – | 0.0926 | – | 0.0621 | 0.0783 | – | – | – | 0.0619 | – | 0.0633
13 | W212D | 0.0493 | – | 0.0699 | – | 0.049 | – | – | 0.0614 | – | 0.0633 | – | 0.0518 | – | 0.0614 | – | 0.0506 | 0.0662 | – | –
14 | P222Q | 0.0795 | 0.0637 | 0.0608 | – | 0.0744 | 0.0749 | 0.0682 | 0.0769 | 0.063 | – | 0.061 | 0.0643 | 0.0758 | 0.0473 | 0.0739 | 0.0735 | 0.0618 | 0.0754 | –
